Laboratory results from article PMC4336329 (PLoS ONE, 2015).
The campaign covered roughly 310,000 compounds. About 2,200 (0.71%) showed an effect of 50% or more. The effect is printed as a negative number. The list shows a part of the results.

Target: human ether-à-go-go-related gene (hERG) potassium channel (human, UniProt Q12809)
Assay: primary screen, population patch clamp on CHO cells stably expressing hERG

human ether-à-go-go-related gene (hERG) potassium channel, sequence (Q12809 whole entry, looked up): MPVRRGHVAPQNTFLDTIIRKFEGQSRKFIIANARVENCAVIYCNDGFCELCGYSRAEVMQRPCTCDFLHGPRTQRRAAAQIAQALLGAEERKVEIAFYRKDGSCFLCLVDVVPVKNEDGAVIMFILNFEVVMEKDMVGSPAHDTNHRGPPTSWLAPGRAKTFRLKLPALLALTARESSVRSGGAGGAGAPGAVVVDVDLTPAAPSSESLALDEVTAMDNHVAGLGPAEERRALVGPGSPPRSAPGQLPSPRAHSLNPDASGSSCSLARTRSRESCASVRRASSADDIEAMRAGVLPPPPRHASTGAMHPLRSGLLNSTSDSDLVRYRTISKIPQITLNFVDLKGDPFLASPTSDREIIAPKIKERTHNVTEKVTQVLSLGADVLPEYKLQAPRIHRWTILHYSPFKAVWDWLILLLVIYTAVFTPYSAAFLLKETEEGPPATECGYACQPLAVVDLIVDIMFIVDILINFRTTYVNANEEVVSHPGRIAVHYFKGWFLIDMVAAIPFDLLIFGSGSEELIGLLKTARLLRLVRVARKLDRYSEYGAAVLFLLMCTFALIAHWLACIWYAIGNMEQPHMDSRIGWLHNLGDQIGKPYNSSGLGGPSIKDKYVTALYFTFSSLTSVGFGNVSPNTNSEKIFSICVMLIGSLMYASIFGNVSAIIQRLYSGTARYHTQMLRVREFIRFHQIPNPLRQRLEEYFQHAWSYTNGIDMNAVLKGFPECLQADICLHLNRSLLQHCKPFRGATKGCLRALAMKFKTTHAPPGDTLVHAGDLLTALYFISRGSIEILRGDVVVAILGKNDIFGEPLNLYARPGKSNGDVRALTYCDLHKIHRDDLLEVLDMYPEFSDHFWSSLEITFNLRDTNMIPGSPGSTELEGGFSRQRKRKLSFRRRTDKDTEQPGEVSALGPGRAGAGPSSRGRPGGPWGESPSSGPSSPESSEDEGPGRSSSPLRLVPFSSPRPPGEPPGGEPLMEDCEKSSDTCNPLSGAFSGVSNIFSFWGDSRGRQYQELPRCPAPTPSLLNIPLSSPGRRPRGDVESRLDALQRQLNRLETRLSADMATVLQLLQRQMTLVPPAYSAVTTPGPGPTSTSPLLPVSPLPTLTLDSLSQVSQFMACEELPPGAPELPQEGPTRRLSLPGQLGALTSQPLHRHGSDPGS

Compound | hERG current change (%, negative = inhibition) at 1uM [%]
Cc1cc(C)n(-c2ccc(Cl)c(C(=O)OCC(=O)N3CCCCC3C)n2)n1 (centres unmarked) | -0.369
COc1ccccc1NC(=O)c1ccc(NC(=O)COC(=O)c2ccc(O)cc2)cc1 | 9.89
CC1=C(C(=O)NC2CCCc3c2cnn3-c2cccc(C)c2C)OCCO1 (centres unmarked) | 14.5
CCN(CC)S(=O)(=O)c1ccc(OC)c(NC(=O)CCc2c(C)noc2C)c1 | 9.48
CCC(C)Sc1ccc([C@H]2N[C@@](Cc3ccccc3)(C(=O)OC)[C@H]3C(=O)N(CC)C(=O)[C@@H]23)cc1OC.O=C(O)C(F)(F)F (some centres unmarked) | 12.9
CC(=O)N1CCc2cc(S(=O)(=O)NC3CCCCC3)ccc21 | 8.6
COC(=O)CCC(=O)NN1C(=O)c2ccccc2C1=O | 5.45
CCCc1cc(=O)[nH]c(SCC(=O)Nc2cccc3ccccc23)n1 | 6.72
O=C(NC1CCCc2c1cnn2-c1ccc(F)cc1F)c1ccccn1 (centres unmarked) | 11.8
CCn1c(=O)[nH]c(=O)c2c(N)c(C(=O)c3cc(F)ccc3F)sc21 | -29.3
COc1ccc(CN2CCN(CCC(C)C)C(CCO)C2)cc1Cn1cccn1 (centres unmarked) | -6.89
CC(C)Cn1c(SCC(=O)N2CCN(S(=O)(=O)c3ccccc3)CC2)nc2ccccc21 | 27.7
CCOC(=O)/C(=C/C=C1\Sc2ccccc2N1CC)C(C)=O | 10.3
CC(C)(C)NC(=O)NC(=O)COC(=O)Cc1ccc(Cl)cc1Cl | 10.3
Cc1cccc(-c2nnc(SCC(=O)NCc3ccc4c(c3)OCO4)n2C)c1 | -0.318
COc1ccc(C(=O)CC2OC(=O)c3c2ccc(OC)c3OC)cc1 (centres unmarked) | 8.46
CCc1cccc(NC(=O)CCS(=O)(=O)c2ccc(Br)cc2)c1 | 1.8
O=C(NCCOc1ccccc1Cl)c1ncn[nH]1 | 0.249
O=C(COc1ccc(Cl)cc1Cl)N1CCCN(C(=O)COc2ccc(Cl)cc2Cl)CC1 | -4.42
COC(=O)C1=C(c2ccc(F)cc2OCc2ccccc2)C[C@@H]2CC[C@H]1N2C(=O)NCc1ccc(OC)c(OC)c1 | 9.71
CCOc1ccc(N2CC(C(=O)NCc3ccc(C)n3C)CC2=O)cc1 (centres unmarked) | 1.09
CCN(CC)C(=O)Cn1cc(C(=O)C(=O)N(C)C2CCN(C)CC2)c2ccccc21 | 6.52
COC(=O)c1c(-c2cccc3ccccc23)csc1NC(=O)Cc1ccc(OC)c(OC)c1 | 11.5

Compound | hERG current change (%, negative = inhibition) at 1uM [%]
COc1ccc(S(=O)(=O)n2ccnc2)c2cccnc12 | 17.7
O=S(=O)(NCc1csc(-c2cccs2)n1)c1ccc(Cl)cc1 | 12.1
FC(F)(F)c1nnc2ccc(Cl)nn12 | 11
COc1ccc(CNC(=O)C(=O)NCC2OCCN2S(=O)(=O)c2ccc(C)cc2)cc1 (centres unmarked) | 30.3
O=c1[nH]c(C2CCN(S(=O)(=O)c3ccc(S(=O)(=O)NC4CC4)cc3)CC2)nc2c1nnn2Cc1cccc(F)c1 | 5.38
C=CCSc1nc2sc(-c3ccccc3)cc2c(=O)n1N | 23.1
Cc1ccc2nc(-c3ccccc3)cc(C(=O)N3CCN(c4ccccc4O)CC3)c2c1 | 12
COc1ccc(NC(=O)CN2CCc3ccccc3C2)c([N+](=O)[O-])c1 | 34.8
CCN(CC)S(=O)(=O)c1ccc(C(=O)OCCNC(=O)c2cccnc2)cc1 | 12.1
CCOC(=O)C1(CCOC)CCN(Cc2nc(C(C)C)cs2)CC1 | 16.7
CC(C)C[C@H](NC(=O)[C@@H](O)[C@H](N)Cc1ccccc1)C(=O)O | 10.5
O=[N+]([O-])c1ccc(-c2nc3ccc([N+](=O)[O-])cc3[nH]2)cc1 | 5.39
Cc1scc(C(=O)NNC(=S)NCC(C)C)c1C | 10.5
Cc1ccc(NC(=O)C2c3ccccc3Oc3ccccc32)nc1 | 8
COc1ccc(/C=N/Nc2cc(C)nc3ccccc23)cc1 | -12.9
CCOc1ccc(CC2c3cc(OCC)c(OCC)cc3CCN2C(=O)CN2CCN(C)CC2)cc1OCC.Cl (centres unmarked) | 7.53
COc1ccc(C2Nc3ccccc3C(=O)N2NC(C)=O)cc1OC (centres unmarked) | 3.7
On1nnc2ccccc21 | 5.77
COc1ccc(-c2oc3cccnc3c2C#CCO)cc1 | 14.4
O=C(c1ccccc1)c1c[nH]c(C(=O)NCCCn2ccnc2)c1 | 11.2
O=[N+]([O-])c1cccc(/C=N/N=C\c2ccccc2)c1 | 19.6
Cc1c(CCC(=O)O)c(=O)oc2cc3oc4c(c3cc12)CCCC4 | 17.1
CCN(CC)S(=O)(=O)c1cccc(-c2nnc(SCCOc3ccccc3)o2)c1 | 12.4

Compound | hERG current change (%, negative = inhibition) at 1uM [%]
CCN(c1cc(C)cc(C)c1)S(=O)(=O)c1nnc(NC(=O)c2ccco2)s1 | 4.14
CCOC(=O)C1=CN(CC2CCCO2)C=C(C(=O)OCC)C1c1ccccc1C(F)(F)F (centres unmarked) | -2.85
Nc1nc2ccccc2nc1N1CCCC1 | -6.95
O=c1cc(N/N=C/c2ccccc2)[nH]c(=O)[nH]1 | 14.7
S=c1[nH]nc(-c2ccc(Cl)cc2)n1/N=C/c1cccs1 | 0.537
O=C1CCN(CCCc2ccccc2)CCN1CCO | 5.78
O=C(/C=N/O)Nc1cccnc1 | 16.2
O=c1[nH]cnc2onc(-c3ccc(F)cc3)c12 | 12.1
Cc1ccnc(N2CCCC(C(=O)Nc3cc(F)ccc3C)C2)n1 (centres unmarked) | 7.57
CCn1nc(C)c(CN2CCCC(C(=O)c3cccc(OC(C)C)c3)C2)c1C (centres unmarked) | -4.68
Cc1ccc(NC(=O)Cn2cncc2-c2ccc([N+](=O)[O-])cc2)cc1C | 7.55
Cc1c(CN2CCC(C)CC2)c(=O)n(-c2ccccc2)n1C | -4.65
O=C(NC(=S)Nc1nc2c(s1)CSc1ccccc1-2)c1ccccc1 | 6.34
O=C(N/N=C/c1ccoc1)c1ccccc1 | 10.5
CCCCn1c(CN2CCN(c3ccccc3)CC2)nc2c1c(=O)n(C)c(=O)n2C | -18.6
C=CCN1C(=O)/C(=C/c2ccc(-c3ccc(F)cc3)o2)SC1=S | 8.52
Cc1ccc(CNC(=O)c2oc3ccc(S(=O)(=O)N4CCOCC4)cc3c2C)cc1 | 3.78
Cn1c(=O)n(C)c2cc(NS(=O)(=O)c3ccc4c(c3)CCCC4)ccc21 | -8.66
Cc1ccc(C)c(/C=C2\N=C(c3ccccc3F)OC2=O)c1 | 13.9
Nc1ccn(-c2ccccc2)c(=O)c1 | 12.1
O=C(Nn1c(-c2ccc(Br)cc2)nc2ccccc2c1=O)c1ccc([N+](=O)[O-])cc1 | -21.4
CCOC(=O)C1=C(C)Nc2nnnn2C1c1cccc(OC)c1OC (centres unmarked) | 0.996
N#CC1(c2ccccc2)CCC(=NNS(=O)(=O)c2ccccc2)CC1 (centres unmarked) | 0.194

Compound | hERG current change (%, negative = inhibition) at 1uM [%]
COc1ccc(C(=O)Nc2ccnn2C2CCN(Cc3cnn(C)c3)CC2)cc1 | 16.9
O=C(COC(=O)C1CCC1)NC(=O)c1ccccc1 | 15.6
COc1ccc(C2c3c(-c4ccccc4O)n[nH]c3C(=O)N2CCc2ccc(OC)c(OC)c2)cc1 (centres unmarked) | -2.59
O=C(OCc1cc(=O)n2cc(Br)ccc2n1)C1COc2ccccc2O1 (centres unmarked) | 9.32
CCOC(=O)CN1C(=O)C(=O)N(Cc2c(F)cccc2Cl)C1=O | 15.6
COc1ccc(OC)c(NC(=O)N2CCCC(C(=O)c3ccccc3OC)C2)c1 (centres unmarked) | 12.1
Cc1ccc(-c2nc3sc4c(c3c(=O)n2N)CCCC4)cc1 | 4.46
CCOC(=O)Nc1cc(C)c(Cl)cc1OC | 9.73
COCCCn1nnnc1SCC(=O)Nc1nc(C)c(C)s1 | 9.16
CC(C)Cc1csc(NC(=O)c2ccc(F)cc2)c1C(=O)O | 3.83
COc1ccccc1NC(=O)C(C)OC(=O)CC1CCCCC1 (centres unmarked) | 8.31
O=C1CCSc2ccc(Cl)cc2N1Cc1ccccc1 | 7.91
CC12CCC(C(=O)Nc3cc(Cl)ccc3Cl)(C(Br)C1=O)C2(C)C (centres unmarked) | 4.75
CC1=NNC(=O)C1C(c1cccc(O)c1)C(C#N)C#N (centres unmarked) | 12.3
CC1=C(C)[N+](=O)C2CCCCC2N1[O-] (centres unmarked) | -5.54
O=C(c1ccc(-c2ccc(Cl)cc2)o1)N1CCN(c2ccc([N+](=O)[O-])cc2Cl)CC1 | 2.72
Cc1cccc(NC(=O)c2cccnc2)c1 | 12.3
COC(=O)CCCC1=CC2=CC(=O)C(C)(OC(=O)CCc3ccccc3)C(=O)C2=CO1 (centres unmarked) | 9.14
CC(C)OP(=O)(c1ccc(N(C)C)cc1)C(Nc1ccccc1)c1cccnc1 (centres unmarked) | 2.08
O=C1NCCCC1C(=O)Nc1ccccn1 (centres unmarked) | 18.8
